Among all 330,000 compounds or so, about 1,700 (0.52%) were called active. Inconclusive means that the source gave no clear call. Such entries were picked first, then a sample of the others. The call rests on the fitted dose curve; in most records, active means well fitted inhibition curve with a large enough effect; inconclusive means small, poorly fitted or top-dose-only effect; inactive means no such curve, though single readings can be large or run the other way. Potencies beside an inconclusive call are fits to weak or partial responses and may not hold up.
These compounds were tested against Beta-lactamase (Escherichia coli (strain K12)) (UniProt P00811) (assay: qHTS Inhibitors of AmpC Beta-Lactamase (assay without detergent)). Conditions: AmpC nitrocefin hydrolysis, absorbance 480 nm, 0.0001% Triton; series mostly up to 57.1 µM.
Chain of UniProt P00811 (P00811 whole entry, looked up): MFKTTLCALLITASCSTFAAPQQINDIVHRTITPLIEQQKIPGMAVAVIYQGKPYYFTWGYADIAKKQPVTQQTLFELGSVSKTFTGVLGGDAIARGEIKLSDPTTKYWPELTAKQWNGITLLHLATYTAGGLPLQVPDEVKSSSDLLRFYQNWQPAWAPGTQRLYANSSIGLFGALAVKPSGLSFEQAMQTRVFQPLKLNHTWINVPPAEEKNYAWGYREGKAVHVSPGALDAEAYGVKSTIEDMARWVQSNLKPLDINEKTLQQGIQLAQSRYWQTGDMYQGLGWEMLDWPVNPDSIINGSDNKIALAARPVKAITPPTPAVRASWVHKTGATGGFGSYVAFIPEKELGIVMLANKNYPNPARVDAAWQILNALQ
Outline: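 20 mM phosphate pH 7.0 + 0.01% (detergent screen) or 0.0001% Triton X-100; 5.3 nM AmpC reagent; cpd preinc 15 min RT; nitrocefin (800 uM stock) to start; A480 q20 s × 4 min; Activity was normalised to no-enzyme and no-compound control wells.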
Further: nearly all actives have a fitted effect of over 20% in size.
Potency means the concentration at half of the fitted maximal effect; tags describe the fitted curve by direction and shape.

SMILES	Potency
Cc1c(C)n2c(SCC(=O)NC3CCCC3)nnc2[nH]c1=O	inconclusive: 35.5 µM [inhibitor, single point]
CC(C)NS(=O)(=O)c1ccc(NC(=S)NC(=O)c2ccc(-c3ccccc3)cc2)cc1	inactive
O=C(Nc1ccsc1C(=O)O)c1ccc(Cl)cc1	inactive
Cc1ccc(NC(=O)CSc2ccccc2NC(=O)c2ccccc2Cl)cc1Cl	inconclusive: 1.78 µM [inhibitor, full curve, poor fit]
COc1ccc(CC(=O)NCCS(=O)(=O)N2CCN(c3ccccc3)CC2)cc1	inconclusive: 39.8 µM [inhibitor, single point]
Cc1cc(-c2onc3ccc(Cl)cc23)ccc1O	inconclusive: 15.8 µM [inhibitor, partial curve, poor fit]
COC(=O)CNC(=O)C1CCN(C(=O)OCc2ccccc2)CC1	inconclusive: 6.31 µM [inhibitor, single point]
CCn1nccc1C(=O)Nc1ccc(Cl)cc1Cl	inconclusive: 0.141 µM [inhibitor, full curve, poor fit]
CCc1nnc(NC(=O)CSc2nnc(-c3cc4ccccc4cc3O)n2CC)s1	inconclusive: 1.58 µM [inhibitor, full curve, poor fit]
COc1ccccc1CNC(=O)COC(=O)c1cc(S(=O)(=O)N2CCOCC2)ccc1Cl	inconclusive: 35.5 µM [inhibitor, single point]
O=C(COC(=O)c1ccccc1NC(=O)c1ccco1)Nc1ncc(Cl)cc1Cl	inconclusive: 25.1 µM [inhibitor, single point]
CC(=O)N(CCN(C(C)=O)c1ccccc1)c1ccccc1	inactive
O=C(CSCC(=O)Nc1cccc2ccccc12)Nc1cccc2ccccc12	inconclusive: 14.1 µM [inhibitor, partial curve]
CCCCc1ccc(C2C(C#N)=C(N)SC(N)=C2C#N)s1	inconclusive: 14.1 µM [inhibitor, partial curve]
COc1cccc(C(=O)N2CCN(C(=O)C3CC3)CC2)c1	inactive
CCCCN(C)CCNC(=O)Cn1c(=O)sc2ccccc21	inactive
O=C(O)CCCn1nc(-c2ccccc2)c2ccccc21	inconclusive: 39.8 µM [inhibitor, partial curve, poor fit]
C(=N/N1CCN(c2ccccc2)CC1)/c1ccncc1	inactive
Cc1ccc(C)c2[nH]c(=O)c(CCNC(=O)C(C)(C)C)cc12	active: 39.8 µM
CCCCn1c(CNC(=O)CCC)nc2ccccc21	active: 7.08 µM
CC1CN(C(=O)c2ccc(COCC(F)(F)F)o2)CC(C)O1 (stereo not given)	inconclusive: 8.91 µM [inhibitor, single point]
CCN(CC)S(=O)(=O)c1ccc(N2CCN(C)CC2)c(NC(=O)CSCC(=O)Nc2cccc(C)c2)c1	inactive
Cc1cccc2sc(NC(=O)c3ccc(NS(=O)(=O)c4cccs4)cc3)nc12	inconclusive: 5.01 µM [inhibitor, partial curve]
Cc1cc(C)cc(NS(=O)(=O)c2ccc3[nH]cc(C(=O)NCc4ccco4)c(=O)c3c2)c1	active: 15.8 µM
O=C(NCCCN1CCCC1=O)C1CCN(S(=O)(=O)c2c(Cl)cccc2Cl)CC1	inconclusive: 39.8 µM [inhibitor, single point]

SMILES	Potency
Cc1c2cccn2cc[n+]1C	inconclusive: 6.31 µM [inhibitor, single point]
COc1ccc(NC(=O)c2cccc(Cn3cc(Br)cn3)c2)cn1	inconclusive: 6.31 µM [inhibitor, single point]
CCOC(=O)C1=C(COC(=O)c2ccc(OC(C)C)cc2)NC(=O)NC1C (stereo not given)	inconclusive: 39.8 µM [inhibitor, single point]
NS(=O)(=O)c1ccc(NC(=S)NC(=O)c2cccc(Br)c2)cc1	inconclusive: 10 µM [inhibitor, partial curve]
Cc1cc(/C=C2\SC(=S)NC2=O)c(C)n1-c1cccc(O)c1	active: 17.8 µM
O=C(COC(=O)c1cc(=O)[nH]c2ccccc12)Nc1nc(-c2cccc(Br)c2)cs1	active: 14.1 µM
CCOC(=O)c1c(NC(C)=O)sc2c(OCC(O)CN(CC)CC)c(Br)ccc12 (stereo not given)	inactive
CCOC(=O)c1cccc(NC(=O)C2CCN(S(=O)(=O)c3cccs3)CC2)c1	inactive
Cc1cccc(-c2noc(-c3ccccc3C(=O)NCc3ccco3)n2)c1	inactive
N#Cc1c(NC(=O)CSc2ncnc3sccc23)oc(-c2ccco2)c1-c1ccco1	active: 1.78 µM
CC(C)c1ccccc1NC(=O)COC(=O)c1c2c(nc3ccccc13)CCN(Cc1ccccc1)C2	active: 3.55 µM
O=C(Oc1ccc2c(c1)OCO2)c1cc2c(s1)CCC2	active: 15.8 µM
C=CCn1c(C)cc(C2=NNC(=Nc3ccc(C)cc3)SC2)c1C	inactive
O=C(COc1cc2oc(=O)c3c(c2cc1Cl)CCC3)Nc1cccnc1	inactive
Cc1cccc(NC(=O)c2cnc3sccn3c2=O)c1C	active: 2.82 µM
O=C(C1=C(O)C(=O)N(CCN2CCOCC2)C1c1ccc(Br)cc1)c1cc2ccccc2o1 (stereo not given)	inactive
COC(=O)c1scc(C)c1NC(=O)Cc1ccccc1	inactive
COc1ccc(/C=N/n2cnnc2)cc1COc1ccccn1	inconclusive: 6.31 µM [inhibitor, single point]
COc1cc(OC)cc(C(=O)Nn2cc(C(=O)Nc3ccc(F)cc3F)c3ccccc3c2=O)c1	inactive
CCOC(=O)N1CCN(c2ncnc3nc[nH]c23)CC1	active: 44.7 µM
COc1ccc(OCCN2C(=O)c3ccccc3C2=O)c([N+](=O)[O-])c1	inactive
O=C(/C=C/c1ccco1)N1CCN(S(=O)(=O)/C=C/c2ccccc2)CC1	inactive
O=C1CC(NS(=O)(=O)c2ccc(F)cc2)CN1c1ccc2c(c1)OCCO2 (stereo not given)	inconclusive: 39.8 µM [inhibitor, single point]
Cc1ccc(NC(=O)CN2C(=O)CSc3ccc(S(=O)(=O)N4CCCCC4)cc32)cc1	inconclusive: 10 µM [inhibitor, partial curve]
Clc1ccccc1CSc1cc2c(nn1)-c1ccccc1CC2	inconclusive: 39.8 µM [inhibitor, single point]

SMILES	Potency
CC1=NN(c2nc(-c3ccc(C)cc3)cs2)C(=O)C1N=Nc1ccccc1O (stereo not given)	inactive
COCCn1c(SC(C)C(=O)NCC2CCCO2)nc2sc3c(c2c1=O)CCC3 (stereo not given)	inconclusive: 39.8 µM [inhibitor, single point]
O=C(CCN1C(=O)/C(=C/c2cccs2)SC1=S)Nc1ccc(O)cc1	inconclusive: 31.6 µM [inhibitor, partial curve]
Cc1nc(Cl)c2oc3ccccc3c2n1	active: 0.158 µM
COc1ccc(C(=O)c2ccc3oc(-c4ccc(OC)cc4)c(-c4ccc(O)cc4)c3c2)cc1	inconclusive: 3.55 µM [inhibitor, partial curve]
COc1cccc(OCCSc2nc3ccccc3c(=O)[nH]2)c1	inactive
CC(/C=C1\SC(=S)N(NC(=O)c2cccc(O)c2)C1=O)=C\c1ccccc1	inconclusive: 7.08 µM [inhibitor, full curve, poor fit]
CC1CN(C(=O)CSc2nnc(NC(=O)NC(C)(C)C)s2)CC(C)O1 (stereo not given)	inconclusive: 39.8 µM [inhibitor, single point]
CCc1ccc2nc(NC(=O)C3CSC4(C)CCC(=O)N34)sc2c1 (stereo not given)	inconclusive: 35.5 µM [inhibitor, single point]
COc1ccc(/C=N/NC(=O)COc2ccccc2-c2ccccc2)cc1	inconclusive: 5.01 µM [inhibitor, single point]
COc1cc(C2SCC(=O)N2CCCN(C)C)cc(OC)c1OC (stereo not given)	inactive
CC1(C)Cc2c(sc3c2c(=N)n(Cc2ccco2)c(=O)n3Cc2ccc(Cl)cc2)CO1	inactive
CN(C)S(=O)(=O)c1cc(NC(=O)COC(=O)/C=C/c2ccco2)ccc1Cl	inconclusive: 12.6 µM [inhibitor, partial curve]
CC(=O)c1cccc(NC(=O)Nc2ccc3c(c2)N(C)C(=O)CS3)c1	inconclusive: 22.4 µM [inhibitor, partial curve]
CC(C)Cc1cc(C(=O)Nc2c(F)cc(F)cc2Br)no1	inconclusive: 11.2 µM [inhibitor, partial curve, poor fit]
Cn1c(=O)n(C)c2cc([N+](=O)[O-])c(N3CCN(C(=O)c4cccc(F)c4)CC3)cc21	inactive
O=C(CCN1CCc2ccccc21)c1ccc2c(c1)OCCO2	inactive
COc1cccc(/C=N/NC(=O)CNC(=O)/C=C\c2ccccc2)c1O	inconclusive: 35.5 µM [inhibitor, single point]
O=C(NCCNc1ccc([N+](=O)[O-])cc1)c1cccc2c(Br)cccc12	inconclusive: 10 µM [inhibitor, single point]
COc1ccc2[nH]c(C(=O)Nc3cccc(C)n3)cc2c1	inactive
Cc1ccc2oc3c(c(=O)c2c1)C(c1cccc(O)c1)N(c1ccccn1)C3=O (stereo not given)	active: 3.55 µM
Cc1ccc(N2C(=O)CC(Nc3ccc(Cl)c(S(=O)(=O)N(C)C)c3)C2=O)c(C)c1 (stereo not given)	active: 28.2 µM
Cc1cc(C(F)(F)F)c(C#N)c(Sc2ccccc2)n1	inconclusive: 0.501 µM [inhibitor, partial curve, poor fit]
CO[C@@]1(NC(=O)C2SC(=C(C(N)=O)C(=O)O)S2)C(=O)N2C(C(=O)O)=C(CSc3nnnn3C)CS[C@@H]21 (stereo not given in full)	active: 7.08 µM
NC(N)=NS(=O)(=O)c1ccc(NC(=S)NC(=O)Cc2ccc(Cl)cc2)cc1	active: 10 µM

— PubChem BioAssay AID485341 (National Center for Advancing Translational Sciences (NCATS), 2010)
